# Test results: publication PMC4336329 (PLoS ONE, 2015)
# The campaign covered roughly 310,000 compounds. About 2,200 (0.71%) showed an effect of 50% or more. The effect is printed as a negative number. This is one part of the list.
# Target: human ether-à-go-go-related gene (hERG) potassium channel (human, UniProt Q12809)
# Test: primary screen, population patch clamp on CHO cells stably expressing hERG
# Chain of human ether-à-go-go-related gene (hERG) potassium channel (Q12809 whole entry, looked up): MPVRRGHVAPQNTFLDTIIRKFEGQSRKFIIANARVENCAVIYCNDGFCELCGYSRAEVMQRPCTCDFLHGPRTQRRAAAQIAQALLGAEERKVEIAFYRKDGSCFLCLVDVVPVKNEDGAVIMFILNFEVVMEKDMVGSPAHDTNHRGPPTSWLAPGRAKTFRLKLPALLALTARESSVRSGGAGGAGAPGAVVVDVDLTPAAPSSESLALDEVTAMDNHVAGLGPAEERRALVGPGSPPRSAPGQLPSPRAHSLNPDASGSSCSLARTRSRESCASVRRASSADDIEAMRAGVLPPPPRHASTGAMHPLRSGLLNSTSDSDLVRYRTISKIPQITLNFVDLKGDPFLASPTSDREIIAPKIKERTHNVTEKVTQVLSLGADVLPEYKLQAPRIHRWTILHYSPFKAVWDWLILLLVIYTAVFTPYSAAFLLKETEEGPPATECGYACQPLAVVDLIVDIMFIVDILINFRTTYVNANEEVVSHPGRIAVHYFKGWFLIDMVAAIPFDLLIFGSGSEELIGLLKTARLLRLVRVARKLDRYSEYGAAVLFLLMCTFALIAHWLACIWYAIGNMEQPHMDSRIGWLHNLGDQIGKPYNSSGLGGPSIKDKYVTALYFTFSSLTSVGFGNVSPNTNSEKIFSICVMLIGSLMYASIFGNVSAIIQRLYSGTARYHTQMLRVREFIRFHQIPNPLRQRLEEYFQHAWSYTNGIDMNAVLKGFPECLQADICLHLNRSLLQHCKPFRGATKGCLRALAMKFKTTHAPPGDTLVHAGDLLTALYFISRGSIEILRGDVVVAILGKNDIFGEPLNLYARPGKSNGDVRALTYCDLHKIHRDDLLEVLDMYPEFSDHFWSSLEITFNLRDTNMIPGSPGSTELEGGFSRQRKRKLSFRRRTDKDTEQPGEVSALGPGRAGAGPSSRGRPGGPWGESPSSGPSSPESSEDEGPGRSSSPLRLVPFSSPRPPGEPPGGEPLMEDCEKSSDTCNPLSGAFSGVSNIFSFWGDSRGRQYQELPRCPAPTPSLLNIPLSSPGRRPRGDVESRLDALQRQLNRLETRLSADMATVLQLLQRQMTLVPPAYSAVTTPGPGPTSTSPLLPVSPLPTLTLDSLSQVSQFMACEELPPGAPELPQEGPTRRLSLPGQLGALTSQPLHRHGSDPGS
row,Structure (SMILES),"hERG current change (%, negative = inhibition) at 1uM [%]"
1,COc1ccc(OCC(O)Cn2c(N3CCCCC3)nc3c2c(=O)[nH]c(=O)n3C)cc1 (stereo not shown),11.8
2,CN(C)C(CNC(=O)c1ccc(NS(=O)(=O)c2ccc(F)cc2)cc1)c1ccco1 (stereo not shown),3.9
3,CCc1nnc(SCC(=O)Nc2ccc(N3CCN(S(C)(=O)=O)CC3)cc2)o1,7.72
4,CCOC(=O)c1c(CSC(=N)N)n(-c2ccccc2)c2cc(Br)c(OC(C)=O)cc12,-57.4
5,CCCCN1C(=O)C(=O)N(CC(=O)Nc2sc(CC)cc2C(=O)OCC)C1=O,4.03
6,CC(CNC(=O)CCc1ccccc1)NC(=O)CCc1ccccc1 (stereo not shown),4.06
7,CC1(C)CC(=O)C(C=NCCN2CCNCC2)=C(O)C1,15.2
8,COc1ccc(-n2c(=S)[nH]c3cc(C(=O)Nc4ccc(F)cc4)ccc3c2=O)c(OC)c1,11.8
9,O=C(OCc1ccccc1)Oc1cncc(C(=O)O)c1,-6.94
10,O=C(Nc1ccc(C2=NCCN2)cc1)c1ccc(Cl)c(C(=O)Nc2ccc(C3=NCCN3)cc2)c1,9.74
11,COc1ccc(-c2nn(CCC#N)cc2C(=O)Nc2cccc(C(=O)O)c2)cc1OC,11.4
12,CC(Nc1[nH]c(=O)n(C)c(=O)c1N=O)c1ccccc1 (stereo not shown),2.2
13,Cc1cc(C)cc(NC(=O)N2CCN(S(C)(=O)=O)CC2)c1,15.2
14,CCc1noc(C)c1C(=O)N1CCN(S(=O)(=O)c2c(C)cc(C)cc2C)CC1,8.08
15,CCn1c(SCC(=O)OC)nnc1-c1ccccc1,-3.28
16,Cc1ccccc1Oc1cc(NC(=O)Cn2cnc([N+](=O)[O-])c2)cc([N+](=O)[O-])c1,3.29
17,O=S(=O)(c1cc(Br)c(Cl)s1)N1CCCC1,11.2
18,Cc1nc2c(-c3ccc(F)cc3)c(C)nn2c(C)c1CCC(=O)NCCN1CCOCC1,5.68
19,Cc1cc2ncc(C(=O)Nc3ccccc3)c(C)n2n1,-3.69
20,CCCCC(C(=O)O)C(C)CC(=O)Nc1nncs1 (stereo not shown),8.95
21,COc1ccccc1C(=O)N/N=C(\C)CC(=O)Nc1ccccn1,19.4
22,O=c1[nH]c(C2CCN(S(=O)(=O)c3cccc(C(F)(F)F)c3)CC2)nc2c1nnn2Cc1cccc(F)c1,21.1

row,Structure (SMILES),"hERG current change (%, negative = inhibition) at 1uM [%]"
1,CC1CCN(C(=O)Cn2c(=O)n(Cc3ccc4c(c3)OCO4)c(=O)c3ccccc32)CC1,2.21
2,CC(C)CNC(=O)c1cc(-c2ccco2)on1,8.3
3,CC(C)C[C@@H]1NC(=O)N(CCN2CCOCC2)C1=O,11
4,CCOc1ncccc1C(=O)OCC(=O)c1cc(OC)c(OC)c(OC)c1,17.8
5,O=C(c1cc2nc(-c3ccccc3)cc(-c3ccccc3)n2n1)N1CCC2(CC1)OCCO2,-9.59
6,CCN(CC(=O)Nc1ccc(NC(C)=O)cc1)C(=O)CCCOc1ccc(C(C)(C)C)cc1,21
7,O=C(Nc1ccccc1)c1ccc2ccccc2n1,13.6
8,COc1ccc(-c2oc(/N=C/N3CCCC3)c(C#N)c2-c2ccc(OC)cc2)cc1,-3.54
9,c1ccc(C2CC(c3ccccc3)n3c(nc4ccccc43)N2)cc1 (stereo not shown),9.43
10,Cc1nn(Cc2ccc(Cl)cc2)c(C)c1NC(=O)Cn1nc([N+](=O)[O-])c(Cl)c1C,15
11,Cn1c(Oc2ccccc2)c(C=O)c2ccccc21,12.7
12,COc1ccc(/C=N/OCC(=O)N2CC3(C)CC2CC(C)(C)C3)cc1OC (stereo not shown),8.59
13,Cc1ccc(C)n1-c1nnc(N2CCC(C(=O)NCCCN3CCN(C)CC3)CC2)s1,2.56
14,Cc1csc(NC(=O)C2CCN(S(=O)(=O)c3ccccc3F)CC2)n1,9.11
15,CCOC(=O)C(C)(C)C(=O)C(C)(C)C(O)c1ccccn1 (stereo not shown),-0.225
16,CCCCN(C(=S)NC(=O)c1cc(OC)c(OC)c(OC)c1)c1c(N)n(Cc2ccccc2)c(=O)[nH]c1=O,13.7
17,O=C(CSc1nc2ncccc2[nH]1)Nc1ccccc1-c1ccccc1,19
18,COc1ccccc1OCCNC(=O)c1cc(SC)ccc1Cl,12
19,COC(=O)CSc1cc(SCC(=O)OC)c(C#N)c(SCC(=O)OC)c1,4.23
20,N#CC1=C(N)C(C#N)(C#N)C(c2cccnc2)C2COCC=C12 (stereo not shown),1.75
21,Cc1cc(NC(=O)CSc2nc3c(c(-c4cccnc4)c2C#N)CCC3)no1,12.2
22,O=C(NNC(=O)c1cc2cc3ccccc3nc2s1)c1cccc(Cl)c1,-4.08

row,Structure (SMILES),"hERG current change (%, negative = inhibition) at 1uM [%]"
1,O=C(CN1C(=O)c2cccc3cccc1c23)Nc1ccc(S(=O)(=O)N2CCOCC2)cc1,-4.12
2,Cc1cccc(NC(=O)c2nc[nH]c2C(=O)N[C@@H](Cc2ccccc2)C(=O)OC(C)(C)C)c1,21.4
3,COc1ccc(CN(C)C(=O)c2ccc(NS(=O)(=O)c3ccc(F)cc3)cc2)c(OC)c1,4.73
4,CN1CCC(OC(=O)c2ccc(Cl)cc2Cl)CC1.Cl,-13.2
5,COc1ccc2[nH]cc(C(=O)CNc3nc(C)cs3)c2c1.I,-0.75
6,N#Cc1c(C(F)(F)F)cc(-c2cccs2)nc1SCC(=O)O,3.81
7,CC(=O)OC(C)(C)C1Cc2cc3ccc(=O)oc3cc2O1 (stereo not shown),10.3
8,CCOC(=O)c1[nH]c2ccc(OC)cc2c1C(SCC(=O)O)c1ccc(C(F)(F)F)cc1 (stereo not shown),9.75
9,O=C(CSc1nnc(CNC(=O)c2cccs2)o1)NCC1CCCO1 (stereo not shown),13.2
10,COc1cc([C@@H]2C[C@H]3CN(c4ccccc4)C(=O)[C@]34CCCN24)cc(OC)c1OC,-1.09
11,Br.CCCC(=O)Nc1ccc(-c2csc(N/N=C\c3ccncc3)n2)cc1,16.9
12,CCC(C)(C(=O)NC1CCCCC1)N(CC1CCCO1)C(=O)Cc1cccs1 (stereo not shown),11.2
13,CCOc1ccc2nc(NC(=O)CSc3nc4cccnc4n3C)sc2c1,12.6
14,CN(C)c1ccc(C=NC(CO)C(O)c2ccc([N+](=O)[O-])cc2)cc1 (stereo not shown),6.82
15,N/C(CC(=O)Nc1ccc(F)cc1F)=N\OC(=O)c1cccs1,9.63
16,CN(C)c1ccc(N=Cc2cccn2C)cc1,18.1
17,Cc1ccc(S(=O)(=O)N(C)c2ccc(C(=O)N3CCN(Cc4ccc5c(c4)OCO5)CC3)cc2)cc1,-0.88
18,O=C(Nc1ccccc1)C1=C(N2CCOCC2)/C(=C/c2cccnc2)CC1,-7.8
19,O=C(O)c1ccccc1C(=O)NCC(O)COCC1CC=CCC1 (stereo not shown),-12.5
20,O=C1Cc2cc(S(=O)(=O)Nc3ccc(F)cc3Cl)ccc2N1,-2.76
21,COc1ccc(C(=O)Nc2ccc3oc(-c4cccc(Cl)c4)cc(=O)c3c2O)cc1,6.78
22,COc1cc(OC)cc(-c2c(-c3ccc(F)cc3)c3cc(-c4ccc5cc[nH]c5c4)ccc3n2C)c1,8.92

row,Structure (SMILES),"hERG current change (%, negative = inhibition) at 1uM [%]"
1,CC(=O)Nc1ccc(NC(=O)c2oc3cc(C)c(C)cc3c2C)cc1,8.62
2,S=c1nc2ccccc2c2nc(-c3ccccc3Br)[nH]n12,13.4
3,Cc1cc(N2CCN(C3CCCCC3)CC2)nc2cccc(O)c12,-11.9
4,CC1(C)CC(CC(=O)Nc2ccccc2[N+](=O)[O-])C(=O)O1 (stereo not shown),12.1
5,COCc1c(Br)c(C)nc2sc3c(=O)[nH]nnc3c12,12.8
6,Cc1ccc(S(=O)(=O)N2CC=C(C(=O)NC3CCCC3)CC2)cc1,11.7
7,COC(=O)[C@@]1(Cc2ccc(F)cc2)[C@H]2c3cc(C(=O)N(C)C)n(C[C@H](O)CO)c3C[C@H]2CN1C(=O)c1ccccc1,19.6
8,COc1ccccc1N1C(=O)C2C(C(=O)c3ccccc3)=NN(c3ccc(Br)cc3)C2C1=O (stereo not shown),7.18
9,Cc1cc(C)cc(NC(=O)Oc2ccccc2N2CCCCC2)c1,11.9
10,CCc1nc2sc3ccccc3c(=O)c2c(=O)n1CCOC,4.79
11,COc1ccccc1CNC(=O)c1ccc2c(c1)OCO2,-5.52
12,Cc1ccc(-n2cc(C(=O)c3ccccc3O)cn2)cc1,13.4
13,Cn1ccc(NC(=O)c2ccc([N+](=O)[O-])cc2)n1,11.4
14,CCCCN(CC)C(=O)Cn1ncc2c1-c1cc(C)ccc1OC2,8.35
15,CCS(=O)(=O)N1CCC(C(=O)NCCN2CCN(Cc3ccccc3)CC2)CC1,9.23
16,COc1cc(C(=O)NNC(=S)NC(=O)c2ccc3c(c2)OCO3)cc(OC)c1OC,3.52
17,Cc1cc(C)c(Nc2ncccc2C(=O)O)c(C)c1,11.9
18,Cc1ccc(C(=O)NCCc2ccc(S(N)(=O)=O)cc2)cc1[N+](=O)[O-],7.24
19,CC(=C\c1ccco1)/C=C1/SC(=S)N(CC(=O)O)C1=O,8.87
